Laboratory results: US20260176336A1 (MESTAG THERAPEUTICS, published 2026)

Tests used:
[1] = target: T1, human LTBR endogenously expressed on cells (HepG2, A549, A375, HCC1187, RPMI-7951, primary human breast CAFs) (human, UniProt P36941 31-435); experiment: cell-based or functional assay
[2] = target: T1, human LTBR endogenously expressed on …; experiment: cell-based or functional assay; remark: listed apart in the source
[3] = target: T1, human LTBR endogenously expressed on …; experiment: cell-based or functional assay; remark: listed apart in the source
[4] = target: T1, human LTBR endogenously expressed on …; experiment: cell-based or functional assay; remark: listed apart in the source
[5] = target: T1, human LTBR endogenously expressed on …; experiment: cell-based or functional assay; remark: listed apart in the source
[6] = target: T2, cyno FAP (Acro, cat no FAP-C82Q5) (cynomolgus (Macaca fascicularis), UniProt Q12884 26-760 (human entry)); experiment: BLI (Octet), antibody captured by anti-Fc, FAP as analyte; * value outside instrument specifications
T2 construct: 'FAP is naturally a dimeric antigen'
Protocol: (§1) Binding to recombinant FAP proteins was investigated by Bio-Layer Interferometry (BLI) using the Octet instrument. Using standard amine coupling chemistry, an anti-Fc antibody was immobilised on the surface of ARG biosensors (Fortebio). The FAP/LTBR bispecific antibodies were loaded on the previously coated surface with anti-Fc capture antibody, followed by a 2-fold series dilution starting at 50 nM of either cyno FAP (Acro, cat no FAP-C82Q5) or human FAP (Acro, cat no FAP-H82Q6). Binding kinetics were studied in a 1× Kinetics buffer where the association was allowed for 200 seconds, followed by dissociation for 400 seconds. Sensor tips were regenerated using 10 mM Glycine pH 2.0. Data generated were referenced by subtracting a parallel buffer blank, the baseline was aligned with the y-axis, inter-step correlation by alignment against dissociation was performed, and the data were smoothed by a Savitzky-Golay filter in the data analysis software. The processed data were fitted using a 1:1 Langmuir binding model with R\hat{ }2 as a measurement of fitting accuracy. The Results are summarised in. Avidity was observed as FAP is naturally a dimeric antigen, and the limited detection by Octet with these molecules has been reached. Species cross-reactivity has been confirmed for all test samples.

[7] = target: T3, human FAP (Acro, cat no FAP-H82Q6) (human, UniProt Q12884 26-760); experiment: as above
T3 construct: 'FAP is naturally a dimeric antigen'
Protocol: as §1

[8] = target: T4, Biotinylated hLTBR-His-Avitag (Acro, cat no LTR-H82E9-25 µg) (human, UniProt P36941 31-227, biotinylated (Avitag)); experiment: BLI (Octet), biotinylated LTBR on SA sensor, antibody (LTBR-bivalent) as analyte
T4 construct: bought protein loaded on SA Streptavidin biosensors
Protocol: Briefly, Biotinylated hLTBR-His-Avitag (Acro, cat no LTR-H82E9-25 μg) was loaded on SA Streptavidin biosensors (Fortebio) in kinetics buffer (ForteBio) followed by a 2-fold dilution series starting at 50 nM of FAP/LTBR bispecific antibodies. Binding kinetics were studied in a 1× Kinetics buffer where the association was allowed for 100 seconds, followed by dissociation for 300 seconds. Data generated were referenced by subtracting a parallel buffer blank, the baseline was aligned with the y-axis, inter-step correlation by alignment against dissociation was performed, and the data were smoothed by a Savitzky-Golay filter in the data analysis software. The processed data were fitted using a 1:1 Langmuir binding model with R\hat{ }2 as a measurement of fitting accuracy. The KD and R\hat{ }2 values can be found in.

[9] = target: cynomologus recombinant LTBR (Octet, Example 4.8) (cynomolgus (Macaca fascicularis), UniProt P36941 31-227 (human entry), limits assumed); experiment: BLI (Octet), cyno LTBR immobilised on ARG sensor, antibody at 25 nM
Protocol: A 2-fold series dilution starting at 50 nM of cynomologus recombinant LTBR was immobilised on the surface of ARG biosensors (Fortebio), followed by FAP/LTBR bispecific at 25 nM. Binding kinetics were studied in a 1× Kinetics buffer where the association was allowed for 180 seconds, followed by dissociation for 100 seconds. Sensor tips were regenerated using ethylene glycol. Data generated were referenced by subtracting a parallel buffer blank, the baseline was aligned with the y-axis, inter-step correlation by alignment against dissociation was performed, and the data were smoothed by a Savitzky-Golay filter in the data analysis software. The processed data were fitted using a 1:1 Langmuir binding model with R\hat{ }2 as a measurement of fitting accuracy. The KD values can be found in.

Row | Binder | ICAM1 upregulation in CAFs monoculture assay EC50 [1] | chemokine (CCL5) induction in RPMI-7951 EC50 [2] | HCC1187 monoculture assay CCL19 read-out EC50 [3] | HCC-1187:RPMI7951 (cis-activation) co-culture assay CCL5 read-out EC50 [3] | HCC-1187:RPMI7951 (trans-activation) co-culture assay, CCL19 Read-out EC50 [3] | CCL19 upregulation, HCC1187:CAF Co-culture EC50 [4] | HepG2 Reporter assay, HepG2:FAP-CHO-K1 Co-culture EC50 [5] | HepG2 Reporter assay, HepG2 Monoculture EC50 [5] | binding result [6] | binding result [7] | Kd [8] | Kd [9] | CCL19 upregulation, HCC1187 Monoculture EC50 [4]
1 | Clone 4.8 (bispecific antibody, human IgG1, kappa) heavy: QLQLQESGPGLVKPSETLSLTCTVSGGSISSSTYYWGWIRQPPGKGLEWIGSIFYSGNTYYNPSLKSRVTISVDTSKNHFSLKLSSVTAADTAVYYCAREIIEPRPGYFDYWGQGTLVTVSS[human IgG1 constant region with changes not listed]GGGGSGGGGSGGGGSDVQLVESGGGLVQPGGSLRLSCAASGRFFGIYDMYWYRQAPGKQRELVAISTSGGHTNYADSVKGRFTISRDNAKNTVYLQMNSLRPEDTAVYYCNIQRVDAPGFYWGQGTLVTVSSA light: DIQMTQSPSSLSASVGDRVTITCRASQSISKYLNWYQQKPGKAPKLLIYAASSLQSGVPSRFSGSGSGTDFTLTISSLQPEDFATYYCQQSNSIPRTFGQGTKVEIKRTVAAPSVFIFPPSDEQLKSGTASVVCLLNNFYPREAKVQWKVDNALQSGNSQESVTEQDSKDSTYSLSSTLTLSKADYEKHKVYACEVTHQGLSSPVTKSFNRGEC | 0.0012 nM | 0.0029 nM | 1.4 nM | 0.0013 nM | 0.01 nM | 0.025 nM | 0.023 nM | 0.22 nM | – | – | – | – | –
2 | Clone 4.9 (bispecific antibody, human IgG1, kappa, FAP:LTBR 2:2 homodimer IgG of FAP mAb (clone 3.5) with C-terminal fused anti-LTBR VHHs (clone 1.6), human IgG1 LALA) heavy: QLQLQESGPGLVKPSETLSLTCTVSGGSISSSTYYWGWIRQPPGKGLEWIGSIFYSGNTYYNPSLKSRVTISVDTSKNHFSLKLSSVTAADTAVYYCAREIIEPRPGYFDYWGQGTLVTVSS[human IgG1 constant region with changes not listed]GGGGSGGGGSGGGGSDVQLVESGGGLVQPGGSLRLSCKASGTTFSDRAFGWYRQAPGKQRELVATISTAGLTWYDVSVKGRFTISRDNAKNTVYLQMNSLRPEDTAVYYCNTFRGNWGQGTLVTVSS light: DIQMTQSPSSLSASVGDRVTITCRASQSISKYLNWYQQKPGKAPKLLIYAASSLQSGVPSRFSGSGSGTDFTLTISSLQPEDFATYYCQQSNSIPRTFGQGTKVEIKRTVAAPSVFIFPPSDEQLKSGTASVVCLLNNFYPREAKVQWKVDNALQSGNSQESVTEQDSKDSTYSLSSTLTLSKADYEKHKVYACEVTHQGLSSPVTKSFNRGEC | 0.0022 nM | 0.0018 nM | 0.047 nM | 0.0013 nM | 0.011 nM | 0.019 nM | 0.006 nM | 0.07 nM | binds | binds | 0.17 nM | 8.65 nM | 0.38 nM
